{
  "source": "patent US10745487B2",
  "about": "“Method of treating cancer by administering an anti-LGR5 monoclonal antibody” (Bionomics Limited, priority 2016, dated 2020)",
  "key": {"CHO-LGR5 cells": {"system": "CHO-LGR5 cells", "details": "5 hrs co-incubation", "method": "CHO-LGR5 cells were grown to confluent and were spun down, resuspended in PBS and were counted. An aliquot of cells (approximately 100 k) were added to another tube containing 100 μM pre-warmed (37° C.) CFSE (Carboxyfluorescein succinimidyl ester) and the mixture was incubated in the cell incubator for 15 min. The final CFSE concentration was about 1 μM. Next, cells were washed and resuspended in pre-warmed medium and were placed in the incubator for another 30 minutes followed by washing with PBS. […] To ensure binding of the antibody to CHO-LGR5 cells, in some studies an aliquot of cells was also stained with a secondary goat anti-human PE conjugated antibody and was analyzed on the calibur machine in the laboratory. The U937 cells were stained with DDAO-SE (DDAO succinimidyl ester; 2 μM of dye for 100K cells) for 15 minutes and in a light protected place in the laboratory and at room temperature. Cells were then 1 ml of FBS (fetal bovine serum) followed by incubation in a light protected place for 5 minutes."}, "[1]": {"system": "Panc1427 (UCSD1427) tumors", "assay": "Panc1427 survival after debulk chemotherapy", "format": "in vivo, mice", "details": "18G7H6A3 after debulk and removal of chemotherapy", "description": "FIG. 23 summarizes the results."}, "[2]": {"system": "PANC1 tumors (cancer stem cell frequency)", "assay": "PANC1 limiting dilution re-implant assay", "format": "in vivo, CB.17 SCID mice", "details": "in combination with gemcitabine", "description": "Tumors cells from these treatment groups were harvested, dissociated, pooled and re-implanted in a limiting dilution assay (500, 1500, 4500 or 13500 cells/animal) into a new cohort of CB.17 SCID mice and allowed to grow with no treatment."}, "[3]": {"system": "human CTCs (HLA+LGR5+ cells) in peripheral blood"}, "[4]": {"system": "CT3 primary CRC xenograft", "assay": "CT3 primary CRC xenograft tumor growth", "format": "in vivo, CB.17 SCID mice", "details": "compared to PBS and MOPC antibody controls, after 4 doses, 15 mg/kg twice weekly", "description": "The CT3 primary CRC xenograft model was derived from a patient with stage III mCRC with mutations in K-Ras, H-Ras, APC, PI3K, PTEN, STK11, RB1, TP53, FGFR2, VANGL2, and ISCO. Low passage cryopreserved CT3 primary xenograft tumor fragments were implanted into 5 SCID/Bg mice. Tumors averaging ˜1150 mm3 pooled from five CT3 primary xenograft-bearing SCID mice were removed at day 41 post-implant, dissociated and re-implanted into CB.17 SCID mice in Matrigel subcutaneously, and monitored twice weekly for tumor size and body weight. When tumors reached an average of 130 mm3, mice were randomized (34 days post implant). […] Mice were dosed BIW at 15 mg/kg for 2.5 weeks (5 doses), starting on day 34. All mice were monitored twice weekly for body weight and tumor size, as well as overall health and appearance, until termination."}, "[5]": {"target": "LGR5 ternary complexes (LGR5-Fc, RSPO or Norrin, RNF43/ZNRF3/LRP6) (Homo sapiens, UniProt O75473)", "sequence (O75473 22-561, one chain of several)": "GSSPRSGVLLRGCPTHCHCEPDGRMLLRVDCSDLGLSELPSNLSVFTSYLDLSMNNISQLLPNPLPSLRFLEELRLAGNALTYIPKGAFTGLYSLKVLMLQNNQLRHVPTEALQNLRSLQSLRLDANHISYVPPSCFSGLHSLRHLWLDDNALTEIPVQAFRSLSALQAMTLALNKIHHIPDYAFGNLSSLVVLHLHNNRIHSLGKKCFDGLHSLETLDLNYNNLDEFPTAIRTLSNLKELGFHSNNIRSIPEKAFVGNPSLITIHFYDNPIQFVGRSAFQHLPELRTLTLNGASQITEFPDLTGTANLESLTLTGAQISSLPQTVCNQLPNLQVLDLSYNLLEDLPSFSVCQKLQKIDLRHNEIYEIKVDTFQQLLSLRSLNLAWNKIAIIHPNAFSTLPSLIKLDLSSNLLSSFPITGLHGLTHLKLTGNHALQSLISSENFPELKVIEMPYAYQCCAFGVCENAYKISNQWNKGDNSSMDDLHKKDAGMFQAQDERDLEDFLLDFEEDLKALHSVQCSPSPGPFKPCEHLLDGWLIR", "details": "RSPO and Norrin ligands; co-receptors RNF43, ZNRF3, LRP6", "method": "Binding of ligand alone (RSPO or Norrin) to LGR5 is not sufficient to induce LGR5 signaling. Instead, LGR5 forms ternary complexes with multiple co-receptors to drive signaling. […] RNF43-Fc, ZNRF3-Fc, and LRP6-Fc were coated on a 96-well high binding plate at 4 μg/mL in 1×PBS. The plate was incubated overnight at 4° C. and blocked with PBS+1% BSA. […] Triplicate wells were used for each condition was tested in triplicate. […] 1:10,000 dilution of anti-mouse IgG HRP (JIR) was used for detection. Plate was developed with TMB (Thermo), and data were collected on SpectraMax Plus 384 plate reader at 450 nm. Data analysis was done using GraphPad Prism 6 program."}, "BLG293 tumors": {"system": "BLG293 tumors", "assay": "BLG293 small cell lung cancer patient derived xenograft tumor growth", "format": "in vivo, CB.17 SCID mice", "details": "15 mg/kg BIW", "method": "Patient derived small cell lung cancer xenograft model. Dissociated tumor cells from BLG293 tumors were implanted into CB.17 SCID mice in Matrigel subcutaneously, and monitored twice weekly for tumor size and body weight. When tumors reached an average of 130 mm3, mice were randomized. Mice were treated with either PBS, antibody control MOPC, or 18G7H6A3. Mice were dosed BIW at 15 mg/kg for. All mice were monitored twice weekly for body weight and tumor size, as well as overall health and appearance, until termination."}, "[6]": {"system": "CT1 cancer stem cell population", "assay": "Flow cytometry of cancer stem cell markers in dissociated tumors", "format": "in vivo, mice", "description": "For flow cytometric analysis, cells from 5 individual tumors were stained with a variety of antibodies against stem cell specific markers CD44, and CD166. Tumors were dissociated, depleted for mouse cells and then counted for viable cells. Dissociated cells were used for analysis of cell surface stem cell marker expression by flow cytometry."}, "BMCRC086 cells": {"system": "BMCRC086 cells", "assay": "BMCRC086 metastatic colorectal cancer, prophylactic treatment", "format": "in vivo, CB.17 SCID mice", "details": "in combination with FOLFIRI, 15 mg/kg BIW", "method": "The in vivo study was performed using low passage colorectal cancer cells (BMCRC086) derived from a liver met of a patient with colorectal cancer. On Day 0, BMCRC086 cells were thawed, suspended in RPMI:Matrigel (1:1) and injected subcutaneously into the rear flank of CB.17 SCID mice. Animals were monitored twice weekly for tumor size and body weight. […] Mice were dosed with FOLFIRI (30 mg/kg Fluorouracil and 90 mg/kg Leucovorin on days 7, 12, 17, 22, 27 and 32; 24 mg/kg Irinotecan on days 8, 13, 18, 23, 28 and 33) for 4 weeks (6 doses)."}, "MDA-MB-231-LM3 tumors": {"system": "MDA-MB-231-LM3 tumors", "assay": "MDA-MB-231-LM3 triple negative breast cancer tumor growth", "format": "in vivo, CB.17 SCID mice", "details": "15 mg/kg BIW, 7 doses", "method": "This in vivo study was performed using low passage triple negative breast cancer cells (ER−, PR−, no HER2 overexpression). MDA-MB-231-LM3 cells were maintained in adherent culture with DMEM/10% FBS/anti-anti medium. CB.17 SCID mice were injected on day 0 with MDA-MB-231-LM3 cells in RPMI:Matrigel (1:1) into the 4th mammary fat pad and monitored twice weekly for tumor size and body weight. At day 27, MDA-MB-231-LM3 tumors were randomized into 4 groups of 10 mice when tumors reached ˜155 mm^3. Mice were treated with PBS, antibody control MOPC, or 18G7H6A3. Mice were dosed BIW at 15 mg/kg for 3.5 weeks (7 doses)."}},
  "data": [
    {"substance": "18G7H6A3", "values": [
      {"measurement": "double positive population on co-incubation of U937-DDAO-SE and CHO-LGR5-CFSE cells", "setting": "CHO-LGR5 cells", "result": "identified a double positive population of cells"},
      {"measurement": "health of animals compared to the control animals", "setting": "[1]", "result": "noticeably more healthy"},
      {"measurement": "tumorigenicity in limiting dilution re-implant compared to gemcitabine alone", "setting": "[2]", "result": "greatly decreased tumorigenicity"},
      {"measurement": "percentage of circulating HLA+LGR5+ cells", "setting": "[3]; 18G7H6A3 15 mg/kg twice/week ip vs. MOPC", "result": "significantly reduced"},
      {"measurement": "percentage of HLA+ cells", "setting": "[3]; MOPC vs. 18G7H6A3", "result": "did not significantly change"},
      {"measurement": "circulating HLA+LGR5+ cells", "setting": "[3]; combination of 18G7H6A3 and SOC, concurrent and debulk settings", "result": "almost completely ablated HLA+LGR5+ cells"},
      {"measurement": "anti-tumor activity in vivo, CT3", "setting": "[4]", "result": "significant anti-tumor activity"},
      {"measurement": "formation of LGR5 ternary complexes", "setting": "[5]", "result": "significantly reduced the formation of LGR5 ternary complexes"},
      {"measurement": "tumor growth inhibition compared to MOPC antibody", "setting": "BLG293 tumors", "result": 24.7, "unit": "%"},
      {"measurement": "tumor growth inhibition compared to PBS", "setting": "BLG293 tumors", "result": 24.9, "unit": "%"},
      {"measurement": "live events in cancer stem cell population (CD166+/CD44+, LGR5+/CD166+, LGR5+/CD166+/CD44+)", "setting": "[6]", "result": "reduces the number of live events"},
      {"measurement": "anti-tumor activity compared to FOLFIRI alone", "setting": "BMCRC086 cells", "result": "significant anti-tumor activity"},
      {"measurement": "tumor growth inhibition compared to MOPC antibody", "setting": "MDA-MB-231-LM3 tumors", "result": 49.3, "unit": "%"},
      {"measurement": "tumor growth inhibition compared to PBS", "setting": "MDA-MB-231-LM3 tumors", "result": 60.7, "unit": "%"}
    ]}
  ]
}
